Test results from the supplement of paper PMC4967469.

Legend:
Test in all cases: Viability of human cancer cell lines after 72 h of drug (GDSC screen)
NU-7441 = compound: O=c1cc(N2CCOCC2)oc2c(-c3cccc4c3sc3ccccc34)cccc12 [NU-7441]; settings: top dose 2 µM; top dose inferred
Procedure: (§1)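 Human cancer cell lines in 384-well plates, medium with 10% serum, drug for 72 h over a 256-fold dose range (nine 2-fold or five 4-fold steps up to the top dose). Adherent lines were fixed and stained with the nucleic acid dye Syto60, suspension lines read with resazurin; signal relative to control wells, capped at 0 and 100%. One two-parameter sigmoid per drug and line, fitted in a mixed model over all curves with the slope shared within a line.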

Gefitinib = compound: COc1cc2ncnc(Nc3ccc(F)c(Cl)c3)c2cc1OCCCN1CCOCC1 [Gefitinib]; settings: top dose 0.5 µM
Procedure: as §1

QL-XI-92 = compound: C=CC(=O)Nc1cc(NC(=O)c2ccc(C)c(NC(=O)c3ccno3)c2)cc(C(F)(F)F)c1 [QL-XI-92]; settings: top dose 10.24 µM; top dose inferred
Procedure: as §1

Vinorelbine = compound: CCC1=C[C@@H]2CN(C1)Cc1c([nH]c3ccccc13)[C@@](C(=O)OC)(c1cc3c(cc1OC)N(C)[C@H]1[C@@](O)(C(=O)OC)[C@H](OC(C)=O)[C@]4(CC)C=CCN5CC[C@]31[C@@H]54)C2 [Vinorelbine]; settings: top dose 0.064 µM; top dose inferred
Procedure: as §1

WHI-P97 = compound: COc1cc2ncnc(Nc3cc(Br)c(O)c(Br)c3)c2cc1OC [WHI-P97]; settings: top dose 10.24 µM; top dose inferred
Procedure: as §1

AG-014699 = compound: CNCc1ccc(-c2[nH]c3cc(F)cc4c3c2CCNC4=O)cc1 [AG-014699]; settings: top dose 5 µM; top dose inferred
Procedure: as §1

XL-184 = compound: COc1cc2nccc(Oc3ccc(NC(=O)C4(C(=O)Nc5ccc(F)cc5)CC4)cc3)c2cc1OC [XL-184]; settings: top dose 5.12 µM; top dose inferred
Procedure: as §1

EHT 1864 = compound: O=c1cc(CN2CCOCC2)occ1OCCCCCSc1ccnc2cc(C(F)(F)F)ccc12 [EHT 1864]; settings: top dose 10 µM; top dose inferred
Procedure: as §1

Phenformin = compound: N=C(N)NC(=N)NCCc1ccccc1 [Phenformin]; settings: top dose 4000 µM; top dose inferred
Procedure: as §1

Row | Cell Line | AUC (NU-7441) | IC50 (NU-7441) [µM] | AUC (Gefitinib) | IC50 (Gefitinib) [µM] | AUC (QL-XI-92) | IC50 (QL-XI-92) [µM] | AUC (Vinorelbine) | IC50 (Vinorelbine) [µM] | AUC (WHI-P97) | IC50 (WHI-P97) [µM] | AUC (AG-014699) | IC50 (AG-014699) [µM] | AUC (XL-184) | IC50 (XL-184) [µM] | AUC (EHT 1864) | IC50 (EHT 1864) [µM] | AUC (Phenformin) | IC50 (Phenformin) [µM]
1 | JHH-4 (liver, adherent) | 0.951 | > 2 | 0.957 | > 0.5 | 0.986 | > 10.2 | 0.894 | > 0.064 | 0.955 | > 10.2 | 0.956 | > 5 | 0.763 | 1.84 | 0.878 | > 10 | – | –
2 | JHU-029 (head and neck, adherent) | 0.977 | > 2 | 0.779 | 0.254 | – | – | 0.457 | 0.00297 | – | – | 0.973 | > 5 | – | – | 0.969 | > 10 | – | –
3 | KP-1N (pancreas, adherent) | 0.986 | > 2 | 0.976 | > 0.5 | – | – | 0.558 | 0.00582 | – | – | 0.979 | > 5 | – | – | 0.982 | > 10 | – | –
4 | LN-405 (glioma, adherent) | 0.975 | > 2 | 0.889 | > 0.5 | 0.91 | > 10.2 | 0.908 | > 0.064 | 0.975 | > 10.2 | – | – | 0.953 | > 5.12 | 0.951 | > 10 | 0.648 | 716
5 | MDA-MB-330 (breast, adherent) | 0.98 | > 2 | 0.969 | > 0.5 | 0.986 | > 10.2 | 0.809 | 0.0392 | 0.971 | > 10.2 | – | – | 0.977 | > 5.12 | – | – | 0.756 | 1540
6 | SCC90 (head and neck, adherent) | 0.981 | > 2 | 0.917 | > 0.5 | – | – | 0.734 | 0.0252 | – | – | 0.981 | > 5 | – | – | 0.978 | > 10 | – | –
7 | SK-GT-4 (oesophagus, adherent) | 0.93 | > 2 | 0.917 | > 0.5 | 0.948 | > 10.2 | – | – | 0.96 | > 10.2 | 0.972 | > 5 | 0.927 | > 5.12 | 0.965 | > 10 | 0.948 | > 4000
8 | SK-MEL-5 (melanoma, adherent) | 0.959 | > 2 | 0.983 | > 0.5 | 0.978 | > 10.2 | – | – | 0.975 | > 10.2 | 0.983 | > 5 | 0.981 | > 5.12 | 0.918 | > 10 | 0.964 | > 4000
9 | SK-MG-1 (glioma, adherent) | 0.957 | > 2 | 0.986 | > 0.5 | 0.987 | > 10.2 | – | – | 0.987 | > 10.2 | 0.955 | > 5 | 0.966 | > 5.12 | 0.965 | > 10 | 0.969 | > 4000
10 | SNU-61 (large intestine, adherent) | 0.985 | > 2 | 0.915 | > 0.5 | 0.943 | > 10.2 | – | – | 0.956 | > 10.2 | 0.985 | > 5 | 0.965 | > 5.12 | 0.935 | > 10 | 0.976 | > 4000
11 | SNU-81 (large intestine, adherent) | 0.911 | > 2 | 0.982 | > 0.5 | 0.981 | > 10.2 | – | – | 0.98 | > 10.2 | 0.963 | > 5 | 0.982 | > 5.12 | 0.931 | > 10 | 0.89 | > 4000
12 | SNU-C5 (large intestine, adherent) | 0.917 | > 2 | 0.985 | > 0.5 | 0.975 | > 10.2 | – | – | 0.978 | > 10.2 | 0.986 | > 5 | 0.968 | > 5.12 | 0.981 | > 10 | 0.941 | > 4000
13 | STS-0421 (soft tissue, adherent) | 0.963 | > 2 | 0.983 | > 0.5 | – | – | 0.64 | 0.0105 | – | – | 0.967 | > 5 | – | – | 0.978 | > 10 | – | –
14 | T-T (oesophagus, adherent) | 0.928 | > 2 | 0.876 | 0.496 | 0.984 | > 10.2 | 0.529 | 0.00478 | 0.962 | > 10.2 | 0.987 | > 5 | – | – | 0.92 | > 10 | 0.97 | > 4000
15 | TE-4 (oesophagus, adherent) | 0.934 | > 2 | 0.83 | 0.313 | 0.985 | > 10.2 | – | – | 0.925 | > 10.2 | 0.987 | > 5 | 0.984 | > 5.12 | 0.97 | > 10 | 0.88 | > 4000
16 | TT (thyroid, adherent) | 0.969 | > 2 | 0.942 | > 0.5 | 0.983 | > 10.2 | 0.982 | > 0.064 | 0.971 | > 10.2 | 0.962 | > 5 | – | – | 0.955 | > 10 | 0.938 | > 4000
17 | UWB1.289 (ovary, adherent) | 0.958 | > 2 | 0.916 | > 0.5 | 0.977 | > 10.2 | – | – | 0.865 | > 10.2 | 0.969 | > 5 | 0.866 | > 5.12 | 0.958 | > 10 | 0.945 | > 4000
18 | YH-13 (glioma, adherent) | 0.921 | > 2 | 0.973 | > 0.5 | 0.933 | > 10.2 | – | – | 0.916 | > 10.2 | 0.971 | > 5 | 0.806 | 2.78 | 0.955 | > 10 | 0.973 | > 4000

Lines with a small IC50 respond at low doses; a fit beyond the top or the lowest dose is shown as a bound at that dose. For AUC the same curve is integrated over the 256-fold range of doses and scaled to a fraction; values near 1 show little effect. For some of these results: Where the top dose is marked as inferred, it comes from the curve model; the source does not state it.
